Results from PubChem BioAssay AID463173 (ICCB-Longwood Screening Facility, Harvard Medical School, 2010).
The campaign covered roughly 52,000 compounds. About 1,700 (3.3%) were called active. No stated cut-off is given here; in the data, active means survival mostly below about 52% (no sharp cut-off); inactive means mostly above about 56%. The list shows a part of the results.

The compounds below were run on Wild type (assay: growth inhibition of S. aureus wild type versus tarO mutant, primary screen, teichoic acid synthesis inhibitors, RN4220, OD600 (AID 463173)). Conditions: S. aureus RN4220 wild type/DeltatarO growth, OD600, 18 h, active compounds read low, screened at 18.75 µg/mL (by protocol).
For `COc1cccc(NC(=O)C2CCC(CNS(=O)(=O)c3csc(C(N)=O)c3)CC2)c1` (stereo not drawn), the survival was inactive: 132%.
`CC(=O)c1ccc(NC(=O)CSc2nc(=O)n(Cc3ccccn3)c3c2CCC3)cc1` was tested, and the survival was inactive: 73%.
In the case of `O=C(CCC1N=C2c3ccccc3N=C(SCc3ccc(Cl)cc3)N2C1=O)NCc1cccs1` (stereo not drawn), the survival is reported as inactive: 60%.
In the case of `COc1ccc(OCC(O)Cn2c(=N)n(CCN3CCCCC3)c3ccccc32)cc1` (stereo not drawn), the survival is reported as inactive: 75%.
With `Cc1ccc(NS(=O)(=O)c2ccc3oc(=O)c4ncn(C)c4c3c2)cc1C` the survival was inactive: 76%.
With `COc1ccc(CCNc2ncnc3c2cnn3-c2ccc(C)c(Cl)c2)cc1` the survival was inactive: 67%.
`CN(C)c1ccc(CNC(=O)CN2C(=O)C3CCCCN3c3ccc(C(=O)N4CCCC4)cc32)cc1` (stereo not drawn) was tested, and the survival was inactive: 85%.
In the case of `COc1ccccc1C(=O)n1nc(-c2ccccc2)nc1NCc1ccc(Cl)cc1`, the survival is reported as inactive: 66%.
For `O=C(CCc1ccccc1)NC1CC(=O)N(c2cccc(F)c2)C1` (stereo not drawn), the survival was inactive: 81%.
In the case of `CCC(=O)N1CCc2cc(S(=O)(=O)NC(CC(C)C)C(=O)Nc3cccc(C)c3C)ccc21` (stereo not drawn), the survival is reported as inactive: 85%.
With `Cc1ccc(N2CCN(C(=O)c3cccn4c(=O)c5ccc(Cl)cc5nc34)CC2C)cc1` (stereo not drawn) the survival was inactive: 92%.
`Cc1ccc(S(=O)(=O)C(CNC(=O)C(=O)NCCc2ccc(Cl)cc2)c2ccco2)cc1` (stereo not drawn) was tested, and the survival was inactive: 121%.
For `CCC(C)NC(=O)c1cc2n(n1)CCCN(Cc1ccc(C)cc1)C2=O` (stereo not drawn), the survival was inactive: 88%.
With `O=C1CCC(NC(=O)OCc2ccccc2)(C(=O)O)O1` (stereo not drawn) the survival was inactive: 111%.
With `CC(=O)Nc1ccc(N=NN2CCCCC2)cc1` the survival was inactive: 99%.
In the case of `CCn1cc(C(=O)N2CCN(c3ccccc3)CC2)c(=O)c2cc(S(=O)(=O)N(C)C)ccc21`, the survival is reported as inactive: 83%.
For `COc1ccc(C(CNC(=O)c2oc3cc(C)c(C)cc3c2C)N2CCCCC2)cc1` (stereo not drawn), the survival was inactive: 102%.
With `Cc1ccc(Nc2nc(N)nc(CSc3nc4ccccc4s3)n2)cc1` the survival was inactive: 32%.
In the case of `O=C(Cc1ccc(F)cc1)NCCc1csc2nc(-c3ccccc3F)nn12`, the survival is reported as inactive: 84%.
For `COc1ccc(CCNS(=O)(=O)c2c(C)nc3sccn3c2=O)cc1OC`, the survival was inactive: 87%.
For `Cc1c2cnn(CC(=O)NCc3ccc(Cl)cc3)c(=O)c2c(C)n1Cc1ccc(F)cc1`, the survival was inactive: 86%.
In the case of `Cc1cc(NS(=O)(=O)c2ccc(NC(=O)COc3ccccc3Br)cc2)no1`, the survival is reported as inactive: 63%.
For `Cc1ccccc1Nc1nn2c(=O)c3ccc(C(=O)NCc4cccs4)cc3nc2s1`, the survival was inactive: 75%.
In the case of `Cc1cc(C)cc(NC(=O)CSc2ccc(-c3cccs3)nn2)c1`, the survival is reported as inactive: 90%.
With `CSc1ccccc1S(=O)(=O)C(C)(C)C` the survival was inactive: 113%.
`COc1ccc(S(=O)(=O)n2nc(C)c(S(=O)(=O)N3CCCCCC3)c2C)cc1C` was tested, and the survival was inactive: 55%.
`CC(=O)Nc1ccc(C)cc1-c1nc2ccccc2n(CC(=O)c2ccc(C)c(C)c2)c1=O` was tested, and the survival was inactive: 84%.
`CN1CCN(c2nc3c(S(=O)(=O)c4ccc(Cl)cc4)nnn3c3ccsc23)CC1` was tested, and the survival was inactive: 77%.
For `CCOC(=O)c1c(N)n(-c2ccc(CC)cc2)c2nc3ccccc3nc12`, the survival was inactive: 77%.
For `O=C(NCCc1csc(-c2ccc(C(F)(F)F)cc2)n1)C(=O)Nc1ccc(F)c(Cl)c1`, the survival was inactive: 101%.
In the case of `CCOc1ccccc1NS(=O)(=O)c1ccc(N2CCCCS2(=O)=O)cc1`, the survival is reported as inactive: 113%.
In the case of `Cc1ccc(N(CC(=O)N2CCN(c3ccccc3)CC2)S(=O)(=O)c2c(C)noc2C)cc1`, the survival is reported as inactive: 83%.
With `Cc1nc(-c2ccc(F)cc2)sc1CCNC(=O)c1cccs1` the survival was inactive: 152%.
`Cc1ccc(C)c(NC(=O)Cn2c(SCC(=O)NCc3ccccc3)nc3ccccc32)c1` was tested, and the survival was inactive: 73%.
In the case of `O=C(CN1C(=O)CSc2ccc(S(=O)(=O)N3CCOCC3)cc21)NCCCN1CCCCC1`, the survival is reported as inactive: 71%.
In the case of `COc1ccc(NC(=O)CSc2nc3ccccc3nc2N2CCCCC2)cc1`, the survival is reported as active: 7%.
For `CCc1ccc(NC(=O)Cn2c(=O)n(-c3ccccc3C)c(=O)c3c2c2cc(OC)ccc2n3C)cc1`, the survival was inactive: 76%.
In the case of `CC(=O)N1CCOc2cc(S(=O)(=O)NCc3ccccc3Cl)c(Cl)cc21`, the survival is reported as inactive: 81%.
`CCN1CCN(C(c2ccccc2Cl)c2sc3nc(-c4ccco4)nn3c2O)CC1` (stereo not drawn) was tested, and the survival was inactive: 101%.
With `CCOc1ccc(NC(=O)Cn2nc3c(cc2=O)CC(C)CC3)cc1` (stereo not drawn) the survival was inactive: 88%.
`CCOC(=O)c1[nH]c2c(c1Cc1ccccc1)C(=O)CC(c1ccccc1)C2` (stereo not drawn) was tested, and the survival was inactive: 84%.
In the case of `CCOC(=O)c1ccccc1NC(=O)N1CCC(CN2CCOCC2)CC1`, the survival is reported as inactive: 83%.
`O=C(COCC(=O)N1CCCC1)N1CCCC1` was tested, and the survival was inactive: 103%.
`Cc1ccc(-c2noc(-c3nnn(CC(=O)Nc4ccc(C)c(Cl)c4)c3N)n2)cc1` was tested, and the survival was inactive: 67%.
For `CC(C)Oc1ccc(C(=O)NCC(c2ccc(N(C)C)cc2)N2CCc3ccccc32)cc1` (stereo not drawn), the survival was inactive: 81%.
In the case of `CCn1c(=O)c2sccc2n2c(CCC(=O)Nc3ccc(F)cc3)nnc12`, the survival is reported as inactive: 62%.
With `CCN(c1ccccc1)S(=O)(=O)c1nnc(NC(=O)C2CCCCC2)s1` the survival was inactive: 85%.
With `COc1ccc2c(c1)c(N1CCCC1=O)c(C(=O)Nc1cc(C)c(Cl)cc1OC)n2C` the survival was inactive: 85%.
In the case of `O=C(Nc1ccc(Br)cc1)c1cc(S(=O)(=O)NC2CCCC2)ccc1F`, the survival is reported as inactive: 55%.
With `Cc1ccc2c(C)c(C(=O)N(Cc3ccc(N(C)C)cc3)Cc3ccco3)oc2c1C` the survival was inactive: 87%.
`O=C(CCSCCc1ccccn1)Nc1ccc(Cl)cc1` was tested, and the survival was inactive: 60%.
`Cc1ccc2c(c1)cc1c(=O)n(Cc3ccccc3Cl)nc(C)n12` was tested, and the survival was inactive: 91%.
For `CCc1ccc2[nH]c(=O)c(CN(Cc3ccco3)C(=S)NCC(C)C)cc2c1`, the survival was inactive: 118%.
With `CCOC(=O)Cc1ccc(NC(=O)NC(C)c2c(-n3cccc3)sc(C)c2C)cc1` (stereo not drawn) the survival was inactive: 98%.
In the case of `Oc1c(C(c2ccccc2)N2CCCC2)sc2nc(-c3ccco3)nn12` (stereo not drawn), the survival is reported as active: -3%.
For `COc1ccc(-c2onc(C)c2C)cc1S(=O)(=O)NCCc1ccccc1`, the survival was inactive: 57%.
`CCN(CC)C(=S)NC(=O)C12CC3CC(CC(C3)C1)C2` was tested, and the survival was inactive: 101%.
With `CCC(=O)N1c2ncnn2C2(CCCCC2)[C@@H]2CCCC[C@@H]21` the survival was inactive: 114%.
With `COc1ccc(CCN2C(=O)N(c3cccc(OC)c3)C(=O)C2CC(=O)Nc2ccccc2)cc1` (stereo not drawn) the survival was inactive: 119%.
With `Cc1cc2oc(=O)c(CC(=O)O)c(C)c2c2occ(-c3ccccc3)c12` the survival was inactive: 61%.
`Cc1ccc(C)c(Cn2c(=O)n(-c3ccccc3)c(=O)c3c4c(sc32)CCCC4)c1` was tested, and the survival was inactive: 104%.
With `COc1cc(-n2c(=O)c3ccccc3n(Cc3cccc(Cl)c3)c2=O)cc(OC)c1OC` the survival was inactive: 129%.
With `CCOC(=O)c1c(C)[nH]c(CCC(=O)NCc2cc(OC)c(OC)c(OC)c2)c1C` the survival was inactive: 69%.
In the case of `O=C(CSc1nnc(-c2ccccc2)o1)c1ccc2c(c1)OCCO2`, the survival is reported as inactive: 110%.
`COc1ccc(CNC(=O)CN2C(=O)CCn3nc(-c4cn(C)c5ccccc45)cc32)cc1` was tested, and the survival was inactive: 80%.
With `COC(=O)C1=NN(C(=O)c2cccc(OC)c2)C(C)(O)C1` (stereo not drawn) the survival was inactive: 123%.
`CCNC(=O)CC1C(=O)N(c2ccc(C)cc2)C(=O)N1CCOC` (stereo not drawn) was tested, and the survival was inactive: 80%.
With `O=C(c1ccc2c(c1)N(Cc1cccc(Cl)c1)C(=O)c1ccccc1S2=O)N1CCC(Cc2ccccc2)CC1` (stereo not drawn) the survival was inactive: 130%.
`CCOC(=O)c1c(S(=O)(=O)N2CCC(C(=O)Nc3ccc(C)c(Cl)c3)CC2)c(C)n(C)c1C` was tested, and the survival was inactive: 68%.
`O=C(c1cccc([N+](=O)[O-])c1)N1CCN(c2ccc(Nc3ccccc3)nn2)CC1` was tested, and the survival was inactive: 63%.
For `COc1nnc(-c2ccc(N3CCCCC3)c(NC(=O)c3ccc(C)cc3)c2)c2ccccc12`, the survival was inactive: 36%.
With `O=C(NC(NC1CCS(=O)(=O)C1)C(=O)c1ccc(Cl)cc1)c1ccco1` (stereo not drawn) the survival was inactive: 121%.
With `CCn1nc(C)c2c(-c3ccccc3)cc(=O)n(C(C)C(=O)NCCc3ccc(Cl)cc3)c21` (stereo not drawn) the survival was inactive: 82%.
`O=S(=O)(c1ccc(-c2cnc(C3CC3)o2)cc1)N1CCN(c2ccc(F)cc2)CC1` was tested, and the survival was inactive: 88%.
With `CCOc1ccc(NC(=O)CCCn2c(C)c3cnn(-c4ccccc4)c(=O)c3c2C)cc1` the survival was inactive: 89%.
`CCOc1cccc(CNCCCSc2nnnn2C)c1` was tested, and the survival was inactive: 88%.
`COc1ccc(OC)c(NC(=O)CSC2=Nc3ccccc3C3=NC(CC(=O)NCCc4ccccc4)C(=O)N23)c1` (stereo not drawn) was tested, and the survival was inactive: 73%.
In the case of `Cc1ccc2c(c1)c1c3n2CCN(C(=O)c2ccc(C(F)(F)F)cc2)C3CCC1` (stereo not drawn), the survival is reported as inactive: 49%.
`Cc1ccccc1-c1nnc(N(C)C(=O)C2CC2)s1` was tested, and the survival was inactive: 109%.
`COc1ccc(-c2cc(C(F)(F)F)n3nc(C(=O)Nc4cc(C)ccc4C)cc3n2)cc1` was tested, and the survival was inactive: 70%.
With `CC1=C(C(=O)OCc2ccc(C)cc2)C(c2cccc(F)c2F)CC(=O)N1` (stereo not drawn) the survival was inactive: 85%.
For `CCOC(=O)c1sc2ccccc2c1S(=O)(=O)N1CCN(c2cc(C)ccc2C)CC1`, the survival was inactive: 73%.
For `O=C(C1CCN(c2ncnc3c2nc2n3CCCCC2)CC1)N1CCN(c2ccc(Cl)cc2)CC1`, the survival was inactive: 55%.
In the case of `Cc1nn(C(=O)c2cccc(F)c2)c(C)c1S(=O)(=O)N1CCOCC1`, the survival is reported as inactive: 69%.
With `COc1ccc(CCNC(=O)c2cc3c(=O)oc4ccc(C)cc4c3s2)cc1OC` the survival was inactive: 93%.
`COc1ccc(CC(=O)NC2CCN(CC(=O)c3ccc(F)cc3)CC2)cc1OC` was tested, and the survival was inactive: 89%.
For `CCNC(=O)c1cc2n(n1)CCCN(Cc1ccc(C)cc1)C2=O`, the survival was inactive: 22%.
In the case of `O=C(CSc1nccn1Cc1ccc(F)cc1)NCc1ccc(F)cc1`, the survival is reported as inactive: 73%.
